Laboratory results as given in publication PMC12820563.
The list shows a part of the results. The list includes weakly bound sequences.

Target: T1, MBP-FoxP3dN (UniProt Q99JB6)
T1 sequence: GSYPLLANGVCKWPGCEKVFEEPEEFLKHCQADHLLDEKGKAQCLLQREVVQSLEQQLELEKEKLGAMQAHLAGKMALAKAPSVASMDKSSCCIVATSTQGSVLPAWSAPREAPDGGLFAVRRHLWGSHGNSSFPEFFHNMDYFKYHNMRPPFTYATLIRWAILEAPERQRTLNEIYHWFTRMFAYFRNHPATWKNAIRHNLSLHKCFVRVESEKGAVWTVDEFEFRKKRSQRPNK
Experiment: PD-seq (MBP pull-down with sequencing)
Conditions: 20 mM Tris-HCl pH 7.5, 100 mM NaCl, 1.5 mM MgCl2, 0.4 uM protein, 0.1 uM dsDNA library, 30 min, room temperature, amylose pull-down; high values mean tight binding; double strand, one strand shown

Sequence	binding signal (RPM ratio (pull-down/input))
GATGATTGTTCTCCCAGCTGATGAATTGTGGGGCTCGAGTAAACAAATTTTCCTAATCTTTCTGTTCAAGCGCCATCTAC	0.656
GATGATTGTTCTCCCAGCTGATGAATTAAACGCATCGAGTAAACAAATTTTCCTAATCTTTCTGTTCAAGCGCCATCTAC	1.19
GATGATTGTTCTCCCAGCTGATGAATTTCTCCTGTCGAGTAAACAAATTTTCCTAATCTTTCTGTTCAAGCGCCATCTAC	0.185
GATGATTGTTCTCCCAGCTGATGAATTCACTGATTCGAGTAAACAAATTTTCCTAATCTTTCTGTTCAAGCGCCATCTAC	0.308
GATGATTGTTCTCCCAGCTGATGAATTCGGTCTTTCGAGTAAACAAATTTTCCTAATCTTTCTGTTCAAGCGCCATCTAC	0.441
GATGATTGTTCTCCCAGCTGATGAATTTACTATATCGAGTAAACAAATTTTCCTAATCTTTCTGTTCAAGCGCCATCTAC	0.679
GATGATTGTTCTCCCAGCTGATGAATTCATTGCCTCGAGTAAACAAATTTTCCTAATCTTTCTGTTCAAGCGCCATCTAC	1.17
GATGATTGTTCTCCCAGCTGATGAATTAGTCTCTTCGAGTAAACAAATTTTCCTAATCTTTCTGTTCAAGCGCCATCTAC	0.628
GATGATTGTTCTCCCAGCTGATGAATTCGCAACTTCGAGTAAACAAATTTTCCTAATCTTTCTGTTCAAGCGCCATCTAC	2.54
GATGATTGTTCTCCCAGCTGATGAATTATTAATTTCGAGTAAACAAATTTTCCTAATCTTTCTGTTCAAGCGCCATCTAC	0.431
GATGATTGTTCTCCCAGCTGATGAATTTCGGGCATCGAGTAAACAAATTTTCCTAATCTTTCTGTTCAAGCGCCATCTAC	0.662
GATGATTGTTCTCCCAGCTGATGAATTTACTCCTTCGAGTAAACAAATTTTCCTAATCTTTCTGTTCAAGCGCCATCTAC	0.503
GATGATTGTTCTCCCAGCTGATGAATTACTATTGTCGAGTAAACAAATTTTCCTAATCTTTCTGTTCAAGCGCCATCTAC	0.817
GATGATTGTTCTCCCAGCTGATGAATTAGATTAGTCGAGTAAACAAATTTTCCTAATCTTTCTGTTCAAGCGCCATCTAC	1.04
GATGATTGTTCTCCCAGCTGATGAATTTAGAATGTCGAGTAAACAAATTTTCCTAATCTTTCTGTTCAAGCGCCATCTAC	0.72
GATGATTGTTCTCCCAGCTGATGAATTAACCCAGTCGAGTAAACAAATTTTCCTAATCTTTCTGTTCAAGCGCCATCTAC	0.224
GATGATTGTTCTCCCAGCTGATGAATTCGCAAGTTCGAGTAAACAAATTTTCCTAATCTTTCTGTTCAAGCGCCATCTAC	0.458
GATGATTGTTCTCCCAGCTGATGAATTAGTGATTTCGAGTAAACAAATTTTCCTAATCTTTCTGTTCAAGCGCCATCTAC	2.55
GATGATTGTTCTCCCAGCTGATGAATTCGACTTATCGAGTAAACAAATTTTCCTAATCTTTCTGTTCAAGCGCCATCTAC	0.683
GATGATTGTTCTCCCAGCTGATGAATTGCATCGCTCGAGTAAACAAATTTTCCTAATCTTTCTGTTCAAGCGCCATCTAC	1.54
GATGATTGTTCTCCCAGCTGATGAATTCGGATGATCGAGTAAACAAATTTTCCTAATCTTTCTGTTCAAGCGCCATCTAC	0.41

Sequence	binding signal (RPM ratio (pull-down/input))
GATGATTGTTCTCCCAGCTGATGAATTACCGCGTTCGAGTAAACAAATTTTCCTAATCTTTCTGTTCAAGCGCCATCTAC	1.32
GATGATTGTTCTCCCAGCTGATGAATTTAGTGTGTCGAGTAAACAAATTTTCCTAATCTTTCTGTTCAAGCGCCATCTAC	3.43
GATGATTGTTCTCCCAGCTGATGAATTTGAGTTTTCGAGTAAACAAATTTTCCTAATCTTTCTGTTCAAGCGCCATCTAC	0.885
GATGATTGTTCTCCCAGCTGATGAATTCCCGTAGTCGAGTAAACAAATTTTCCTAATCTTTCTGTTCAAGCGCCATCTAC	0.253
GATGATTGTTCTCCCAGCTGATGAATTGACACAGTCGAGTAAACAAATTTTCCTAATCTTTCTGTTCAAGCGCCATCTAC	0.454
GATGATTGTTCTCCCAGCTGATGAATTGCCCTTTTCGAGTAAACAAATTTTCCTAATCTTTCTGTTCAAGCGCCATCTAC	0.484
GATGATTGTTCTCCCAGCTGATGAATTATTCCACTCGAGTAAACAAATTTTCCTAATCTTTCTGTTCAAGCGCCATCTAC	0.377
GATGATTGTTCTCCCAGCTGATGAATTAAGCGGCTCGAGTAAACAAATTTTCCTAATCTTTCTGTTCAAGCGCCATCTAC	0.629
GATGATTGTTCTCCCAGCTGATGAATTCACATGTTCGAGTAAACAAATTTTCCTAATCTTTCTGTTCAAGCGCCATCTAC	0.611
GATGATTGTTCTCCCAGCTGATGAATTTACAGCCTCGAGTAAACAAATTTTCCTAATCTTTCTGTTCAAGCGCCATCTAC	0.597
GATGATTGTTCTCCCAGCTGATGAATTGAGAGCATCGAGTAAACAAATTTTCCTAATCTTTCTGTTCAAGCGCCATCTAC	0.774
GATGATTGTTCTCCCAGCTGATGAATTGGGCCGCTCGAGTAAACAAATTTTCCTAATCTTTCTGTTCAAGCGCCATCTAC	1
GATGATTGTTCTCCCAGCTGATGAATTTTGCTTCTCGAGTAAACAAATTTTCCTAATCTTTCTGTTCAAGCGCCATCTAC	2.58
GATGATTGTTCTCCCAGCTGATGAATTCCAATTCTCGAGTAAACAAATTTTCCTAATCTTTCTGTTCAAGCGCCATCTAC	0.503
GATGATTGTTCTCCCAGCTGATGAATTTTGGGCGTCGAGTAAACAAATTTTCCTAATCTTTCTGTTCAAGCGCCATCTAC	0.551
GATGATTGTTCTCCCAGCTGATGAATTACGGAGGTCGAGTAAACAAATTTTCCTAATCTTTCTGTTCAAGCGCCATCTAC	0.267
GATGATTGTTCTCCCAGCTGATGAATTCGCGTTGTCGAGTAAACAAATTTTCCTAATCTTTCTGTTCAAGCGCCATCTAC	1.3
GATGATTGTTCTCCCAGCTGATGAATTTTCTGTGTCGAGTAAACAAATTTTCCTAATCTTTCTGTTCAAGCGCCATCTAC	0.415
GATGATTGTTCTCCCAGCTGATGAATTTTGAGGCTCGAGTAAACAAATTTTCCTAATCTTTCTGTTCAAGCGCCATCTAC	0.501
GATGATTGTTCTCCCAGCTGATGAATTGCGCTAGTCGAGTAAACAAATTTTCCTAATCTTTCTGTTCAAGCGCCATCTAC	1.83
GATGATTGTTCTCCCAGCTGATGAATTCTCCTGTTCGAGTAAACAAATTTTCCTAATCTTTCTGTTCAAGCGCCATCTAC	0.256

Sequence	binding signal (RPM ratio (pull-down/input))
GATGATTGTTCTCCCAGCTGATGAATTCAGCAGTTCGAGTAAACAAATTTTCCTAATCTTTCTGTTCAAGCGCCATCTAC	0.768
GATGATTGTTCTCCCAGCTGATGAATTCTTACACTCGAGTAAACAAATTTTCCTAATCTTTCTGTTCAAGCGCCATCTAC	0.336
GATGATTGTTCTCCCAGCTGATGAATTATTGATGTCGAGTAAACAAATTTTCCTAATCTTTCTGTTCAAGCGCCATCTAC	1.3
GATGATTGTTCTCCCAGCTGATGAATTTCTAACGTCGAGTAAACAAATTTTCCTAATCTTTCTGTTCAAGCGCCATCTAC	0.285
GATGATTGTTCTCCCAGCTGATGAATTGTGCTAGTCGAGTAAACAAATTTTCCTAATCTTTCTGTTCAAGCGCCATCTAC	2.26
GATGATTGTTCTCCCAGCTGATGAATTATCAGAATCGAGTAAACAAATTTTCCTAATCTTTCTGTTCAAGCGCCATCTAC	0.21
GATGATTGTTCTCCCAGCTGATGAATTCTCTCCCTCGAGTAAACAAATTTTCCTAATCTTTCTGTTCAAGCGCCATCTAC	0.2
GATGATTGTTCTCCCAGCTGATGAATTATGCCATTCGAGTAAACAAATTTTCCTAATCTTTCTGTTCAAGCGCCATCTAC	5.9
GATGATTGTTCTCCCAGCTGATGAATTGAGAAGATCGAGTAAACAAATTTTCCTAATCTTTCTGTTCAAGCGCCATCTAC	0.167
GATGATTGTTCTCCCAGCTGATGAATTCGACTGGTCGAGTAAACAAATTTTCCTAATCTTTCTGTTCAAGCGCCATCTAC	0.344
GATGATTGTTCTCCCAGCTGATGAATTAACATGGTCGAGTAAACAAATTTTCCTAATCTTTCTGTTCAAGCGCCATCTAC	0.36
GATGATTGTTCTCCCAGCTGATGAATTTCACCATTCGAGTAAACAAATTTTCCTAATCTTTCTGTTCAAGCGCCATCTAC	0.441
GATGATTGTTCTCCCAGCTGATGAATTTTCGGTTTCGAGTAAACAAATTTTCCTAATCTTTCTGTTCAAGCGCCATCTAC	0.4
GATGATTGTTCTCCCAGCTGATGAATTCCATGACTCGAGTAAACAAATTTTCCTAATCTTTCTGTTCAAGCGCCATCTAC	0.348
GATGATTGTTCTCCCAGCTGATGAATTGGAGGGTTCGAGTAAACAAATTTTCCTAATCTTTCTGTTCAAGCGCCATCTAC	0.358
GATGATTGTTCTCCCAGCTGATGAATTAAGTCTCTCGAGTAAACAAATTTTCCTAATCTTTCTGTTCAAGCGCCATCTAC	0.779
GATGATTGTTCTCCCAGCTGATGAATTGTGTGCCTCGAGTAAACAAATTTTCCTAATCTTTCTGTTCAAGCGCCATCTAC	2.26
GATGATTGTTCTCCCAGCTGATGAATTCAGAGCTTCGAGTAAACAAATTTTCCTAATCTTTCTGTTCAAGCGCCATCTAC	0.247
GATGATTGTTCTCCCAGCTGATGAATTTGGACACTCGAGTAAACAAATTTTCCTAATCTTTCTGTTCAAGCGCCATCTAC	1.45
GATGATTGTTCTCCCAGCTGATGAATTCCAACCCTCGAGTAAACAAATTTTCCTAATCTTTCTGTTCAAGCGCCATCTAC	0.236
GATGATTGTTCTCCCAGCTGATGAATTTGACCTGTCGAGTAAACAAATTTTCCTAATCTTTCTGTTCAAGCGCCATCTAC	0.532
